Measurements as given in patent publication US20240052055A1 (SIMCERE ZAIMING PHARMACEUTICAL, published 2024).

Columns and labels:
[1] = biological target: T1, mouse GPC3-His protein (Sino Biological, Cat. No. 50989-M08B) (mouse, UniProt Q8CFZ4 25-558); assay: ELISA; antibody 10 nM
T1 construct: Bought protein; also called mouse GPC3 protein; not shown: His tag
Experimental: (§1) After incubation for 2 h at 37° C., the plate was washed 3 times with PBS.

[2] = biological target: T2, monkey GPC3-His protein (Acro, Cat. No. GP3-05225) (monkey, UniProt A5A6P7 25-559); assay: ELISA; antibody 10 nM
T2 construct: Bought protein; the soluble protein surely lacks signal peptide and C-terminal anchor region; also called monkey GPC3 protein; not shown: His tag
Experimental: as §1

[3] = biological target: T3, human GPC3 (Gln25-His559)-His protein (Acro, Cat. No. GP3-H52H4) (human, UniProt P51654 25-559); assay: ELISA; antibody 10 nM
T3 construct: Bought protein; also called human GPC3-His protein; human GPC3-his protein; not shown: His tag
Experimental: as §1

[4] = biological target: T1, mouse GPC3-His protein (Sino …); assay: ELISA; antibody 100 nM
Experimental: as §1

[5] = biological target: T2, monkey GPC3-His protein (Acro, Cat. No. …); assay: ELISA; antibody 100 nM
Experimental: as §1

[6] = biological target: T3, human GPC3 (Gln25-His559)-His protein …; assay: ELISA; antibody 100 nM
Experimental: as §1

[7] = biological target: T1, mouse GPC3-His protein (Sino …); assay: ELISA; antibody 0.001 nM
Experimental: as §1

[8] = biological target: T2, monkey GPC3-His protein (Acro, Cat. No. …); assay: ELISA; antibody 0.001 nM
Experimental: as §1

[9] = biological target: T3, human GPC3 (Gln25-His559)-His protein …; assay: ELISA; antibody 0.001 nM
Experimental: as §1

[10] = biological target: T1, mouse GPC3-His protein (Sino …); assay: ELISA; antibody 0.1 nM
Experimental: as §1

[11] = biological target: T2, monkey GPC3-His protein (Acro, Cat. No. …); assay: ELISA; antibody 0.1 nM
Experimental: as §1

[12] = biological target: T3, human GPC3 (Gln25-His559)-His protein …; assay: ELISA; antibody 0.1 nM
Experimental: as §1

[13] = biological target: T4, polypeptide YP7pep of human GPC3 (Asp511-Ser560) (human); assay: ELISA on coated polypeptide YP7pep, HRP-labeled secondary antibody
T4 construct: Synthetic peptide made by GL Biochem; also called polypeptide YP7pep protein
T4 peptide: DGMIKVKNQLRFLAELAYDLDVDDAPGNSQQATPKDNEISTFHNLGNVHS
Experimental: as §1

[14] = biological target: T5, human GPC3 on cells (HepG2 endogenous; CHO-K1 recombinant clones CHOK1-hGPC3.1C3, 2B5, 3E9) (human, UniProt P51654 25-554); assay: FACS on CHO-K1-human GPC3 cells
T5 construct: Full-length human GPC3 (NCBI NM_004484.3) transfected into CHO-K1; HepG2 expresses GPC3 endogenously; also called CHO-K1-human GPC3 cells; HepG2 cells

[15] = biological target: T1, mouse GPC3-His protein (Sino …); assay: ELISA; antibody 1 nM
Experimental: as §1

[16] = biological target: T2, monkey GPC3-His protein (Acro, Cat. No. …); assay: ELISA; antibody 1 nM
Experimental: as §1

[17] = biological target: T3, human GPC3 (Gln25-His559)-His protein …; assay: ELISA; antibody 1 nM
Experimental: as §1

[18] = biological target: T6, monkey GPC3 on HEK293T cells (monkey, UniProt A5A6P7 25-554); assay: FACS on HEK293T-monkey GPC3 cells
T6 construct: Full-length monkey GPC3 (NCBI XP_011739317.1) transfected into HEK293T; also called HEK293T-monkey GPC3 cells; HEK293T-monkey-GPC3

[19] = biological target: T2, monkey GPC3-His protein (Acro, Cat. No. …); assay: SPR (Biacore), antibody captured on Protein A chip
Experimental: (§2) The sample and running buffer was HBS-EP+ (10 mM HEPES, 150 mM NaCl, 3 mM EDTA, 0.05% surfactant P20) (GE Healthcare; BR-1006-69). The flow cell was set at 25° C. The sample block was set at 16° C. Both were pretreated with the running buffer. […] The association and dissociation processes of the antibody with the antigen protein were recorded, and finally, the chip was regenerated using Glycine pH 1.5 (GE Healthcare; BR-1003-54). […] The dissociation phase was monitored for up to 600 s and triggered by switching from the sample solution to the running buffer. The surface was regenerated by washing with 10 mM glycine solution (pH 1.5) at a flow rate of 30 μL/min for 30 s. The difference in bulk refractive index was corrected by subtracting the responses obtained from the goat anti-human Fc surface. Blank injections were also subtracted (double reference). To calculate the apparent KD and other kinetic parameters, the Langmuir 1:1 model was used.

[20] = biological target: T3, human GPC3 (Gln25-His559)-His protein …; assay: SPR (Biacore), antibody captured on Protein A chip
Experimental: as §2

T1 sequence (Q8CFZ4 25-558 limits assumed): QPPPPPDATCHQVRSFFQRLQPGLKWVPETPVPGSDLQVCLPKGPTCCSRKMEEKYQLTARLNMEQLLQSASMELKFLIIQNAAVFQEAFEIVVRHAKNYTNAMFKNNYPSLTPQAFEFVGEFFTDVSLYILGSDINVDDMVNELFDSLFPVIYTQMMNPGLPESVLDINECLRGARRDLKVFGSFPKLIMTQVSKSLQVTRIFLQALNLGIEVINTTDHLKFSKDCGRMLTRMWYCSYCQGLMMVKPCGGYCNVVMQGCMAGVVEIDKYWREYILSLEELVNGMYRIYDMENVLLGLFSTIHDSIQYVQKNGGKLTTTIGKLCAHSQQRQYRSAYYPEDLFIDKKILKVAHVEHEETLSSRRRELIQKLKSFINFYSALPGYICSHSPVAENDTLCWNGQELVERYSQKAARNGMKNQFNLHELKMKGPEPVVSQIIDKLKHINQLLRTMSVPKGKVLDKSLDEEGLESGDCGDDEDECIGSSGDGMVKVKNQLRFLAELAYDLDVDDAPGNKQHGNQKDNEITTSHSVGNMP

OD450 [1]: 1.12
OD450 [2]: 2.24
OD450 [3]: 2.08
OD450 [4]: 2.18
OD450 [5]: 2.35
OD450 [6]: 2.35
OD450 [7]: 0.051
OD450 [8]: 0.086
OD450 [9]: 0.241
OD450 [10]: 0.066
OD450 [11]: 1.47
OD450 [12]: 1.47
binding result [13]: no binding (tested: 100 nM)
EC50 [14]: 0.97 nM
Max MFI [14]: 4900
OD450 [15]: 0.07
OD450 [16]: 1.91
OD450 [17]: 1.95
EC50 [18]: 0.23 nM
Max MFI [18]: 15600
Kd [19]: 3.06 nM
koff [19]: 0.00108 s⁻¹
kon [19]: 352000 M⁻¹ s⁻¹
Kd [20]: 1.66 nM
koff [20]: 0.000443 s⁻¹
kon [20]: 267000 M⁻¹ s⁻¹
B1: VH001 VHH-hFc (Fc fusion)
chain: QLQLVESGGGLVQPGGSLRLSCAASGFTLDVYAIGWFRQAPGKEREGVSYITSGDGIFYADSVKGRFTISRDNAKNTVYLQMNSLKPEDTAVYFCATLKRTTAGGWPIPGRIGGQGTQVTVSS[human IgG1 Fc with changes left out]
notes: VHH recombined with human IgG1 Fc (VHH-hFc); the junction is not described
